Experimental data reported in publication PMC10668032.
This is one part of the list. At the low end of the ranking, values are background and their order means little.

molecular target: SIX1-Q177R homeodomain (UniProt Q15475); experiment: universal protein binding microarray; details: Universal all-10-mer PBM (8x60K, AMADID 030236), 300 nM GST-tagged protein, Alexa Fluor 488 anti-GST; buffer, salt, pH and temperature not stated; high values mean tight binding; most listed sequences are background and not binding sites; double strand, one strand shown

Sequence	binding signal [E-score]
CTCTCGTA	-0.178
GCAATGGA	-0.183
GAGCCTAC	-0.108
ATCTAGAC	0.0386
ATTGGCGA	-0.148
GGGATTTA	0.00874
CTCAAGCA	0.0114
CGGTGCGA	0.155
AAGTGCTG	-0.0592
ACAAAGAG	0.0486
AAAACCAA	-0.0582
GTTGCTAA	-0.107
GGGCGTTA	0.142
ATACACTG	0.392
GCTCAATA	-0.193
AGGTGTCC	0.464
AGGTTACA	0.182
GTCCTGTA	-0.234
CGTAACCA	-0.177
GTCCGGGA	-0.114
AAATTACG	-0.211
ACACCAAT	0.473
AAACATAT	-0.264
ACTCGGCT	-0.0747
ACAGCAGT	0.0295

Sequence	binding signal [E-score]
AAGTAGCA	-0.25
GCAGCATA	-0.0395
ATGCACCA	0.165
GGGTATAC	0.262
GGCGCGCA	-0.0554
ATGGCTGA	-0.113
ACCCTATA	0.0941
CCACTACA	0.298
CTTTGACC	0.0454
TATGCACA	0.0646
CGCGCCCA	0.0147
GAGAGTAC	0.0453
CCACCTCG	-0.0443
GCCGCTAA	-0.159
CTCAGAGC	-0.156
ATCCACAG	0.185
ACTTAAGG	-0.027
AGAATACA	0.136
CCACTCTC	0.0949
GCGGTTAA	-0.0416
AATCGTGG	-0.0906
ACTTGCTG	-0.113
CTACTCTC	0.00492
CTGCGTCC	-0.231
AATTGCCT	-0.133

Sequence	binding signal [E-score]
AATTGGGC	-0.101
ACAAAGTG	0.102
GACTAGGA	-0.173
CTCCCAGA	0.00241
CATCTCCG	-0.0973
AACCTATA	0.0658
ACCTGTAG	-0.066
CGTGCTAG	0.0709
CCCGTATC	0.114
AAAGGTCC	-0.0188
CATGAAAC	0.0479
AAATCGTC	-0.254
TCAGTCGA	-0.0683
ACGTACCT	0.00332
AGTTCCCG	-0.115
AAAAAAGG	-0.214
ATGCACTG	-0.218
GGCTTTTA	-0.146
ACTCTCTG	-0.036
AGTGCTGG	0.0382
AAAATTCT	-0.121
AGAAGCTG	-0.273
CTAAGAAA	-0.175
CGTTAAGA	-0.139
AGAGTTGA	-0.0399

Sequence	binding signal [E-score]
AAGGGTAA	0.136
AAAACCTT	-0.185
GCCCTTTA	-0.0576
GACCAGCC	-0.302
CTACGATA	0.0119
CTACGGTC	-0.198
CGGTCAGA	-0.288
GGTCCAGA	-0.204
AGCGTAGC	-0.192
ACGGGACT	-0.106
AGTAAAAC	0.0273
ATATAGAG	-0.133
ACGAGATA	-0.0837
CCACGAGA	-0.0445
GAGGCAGC	-0.211
AATTACAT	-0.26
GGACTCTA	0.0998
GGAAGGTA	0.169
CGGCGTTA	0.143
TCAATGCA	-0.215
GTAAAGTA	0.0252
CAGCGCGC	-0.109
CATACAGG	-0.0352
GCACCATA	0.174
CTGAAGCC	-0.209

Sequence	binding signal [E-score]
CAGGGGAA	-0.0155
GAGGTAAA	-0.117
ACGCCACT	0.159
GAAGCTGC	-0.192
ATTCGACC	-0.0517
CATCCTGA	-0.147
GTCCGTGA	0.00588
ACTTACCA	0.025
ACACAAAT	0.167
AGTTTGAC	-0.0847
CCAACTGC	-0.223
AGCCCGTG	0.122
CAAGCATG	-0.189
ACCACCTG	0.11
AGCAGCCA	-0.32
AGGTGGCA	-0.0817
CACTTTGC	0.0429
ACTTTAGG	-0.0441
CATAATCG	-0.0719
GACGTTGA	-0.0104
AATTGTCA	0.114
AAAATCTG	-0.0398
GACACTGC	0.433
CAAGGCCC	-0.115
ATTTCAGC	-0.197

Sequence	binding signal [E-score]
GCTTCTCA	-0.188
ATTTTCCG	-0.179
AAGTATCA	0.117
CAATGCGA	-0.0103
ATCATAAA	-0.105
AGAACGGC	-0.205
ATAATGAC	0.076
ACACGCGG	0.402
AATCGGGG	0.0944
CCTGCAAG	-0.0321
CCGACTTA	0.0346
CATAATTC	-0.14
GCAAGTAC	-0.17
CGGATAAG	0.132
ACTCGCTC	-0.121
AAAATACG	-0.0456
CGCGATGA	-0.235
CGCAAGAC	-0.0941
ATTAGAGA	-0.222
AAGATAAC	0.0106
AACTATCG	-0.00075
CAACTCTG	0.0185
GGAGGGTA	0.224
AACACGTT	0.272
CATATGAG	0.0636

Sequence	binding signal [E-score]
GCACCAAA	0.084
CTTGGCTA	-0.149
CGAGCACG	0.143
CCCGAAAC	-0.0264
CCTGTGTA	0.192
ACCCGATG	0.0993
AGGGATAC	0.165
AGATTTGG	-0.19
AAACGTAA	-0.113
TTCTGCAA	0.00631
AGCGACAG	-0.187
ATTCTGTA	-0.191
CCCCTAGC	0.177
GACTATGC	-0.0682
ACCGTTAA	0.0075
GTGAAAAC	-0.146
TCCAGGGA	-0.09
CGCCAGGA	-0.131
CACCAGAC	0.338
AAGACCGT	-0.191
CTACCTCA	0.0378
GATATAAC	0.117
